# This is one part of the list.
# Molecular target: T1, OsWOX13 (Oryza sativa, UniProt Q5QMM3 1-267)
# T1 sequence: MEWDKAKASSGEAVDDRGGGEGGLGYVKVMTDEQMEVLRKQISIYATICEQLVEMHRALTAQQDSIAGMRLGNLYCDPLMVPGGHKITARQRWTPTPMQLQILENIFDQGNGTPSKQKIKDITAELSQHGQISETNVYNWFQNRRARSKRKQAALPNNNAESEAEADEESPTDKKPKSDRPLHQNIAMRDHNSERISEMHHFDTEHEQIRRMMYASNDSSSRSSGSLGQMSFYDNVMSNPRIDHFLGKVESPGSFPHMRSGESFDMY
# Assay: protein-binding microarray (RPBM); PBS, 2% BSA, 51.3 ng/ul salmon testes DNA, 50 uM zinc acetate, 200 nM TF, 25 C, 1 h; high values mean tight binding
# Details: protein: recombinant; tags: N-terminal polyhistidine and DsRed monomer fusion (pET32a); label: CyDye5-dUTP incorporated in the synthesized complementary strand; 3' TTTTT single-stranded linker to array surface; dsDNA, one strand shown
# Outline: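 Ni–NTA purification followed expression in E. coli BL21-CodonPlus of transcription factors fused N-terminally to a polyhistidine tag and DsRed. At 200 nM in PBS with 2% BSA, salmon testes DNA and 50 µM zinc acetate, the protein was incubated for 1 h at 25 °C with a custom Agilent array that had been primer-extended with Cy5-dUTP and blocked with 2% BSA. After washing, the array was read on an Axon 4000B scanner. The binding signal is per-feature fluorescence intensity in arbitrary units.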
row,Sequence,binding signal
1,TTGATTAATTTATTTATAGTTTTGTGAAAGTTTGCGCCGTCGGAGTCACCTAGTGCAG,57900 fluorescence intensity (a.u.)
2,CCACTAATAAAGAAATTAGGGTAAGGAACCAAGATGTACGCGGAGTCACCTAGTGCAG,5710 fluorescence intensity (a.u.)
3,ATAATGTGTAACTTGATTGCTGAGGTAGTATTAATCTTTGCGGAGTCACCTAGTGCAG,24300 fluorescence intensity (a.u.)
4,AATTCATTGTAATTAAATCTTCAAAACAAGACCACACATGCGGAGTCACCTAGTGCAG,3400 fluorescence intensity (a.u.)
5,CACATACTATACTACATTAATTATATTCTGATGAAATCCGCGGAGTCACCTAGTGCAG,4130 fluorescence intensity (a.u.)
6,TTATATTTAGATTGAAGCCAAAATAACCTAAGTTCACTATCGGAGTCACCTAGTGCAG,8620 fluorescence intensity (a.u.)
7,TAGTGATAGACGGCATAACCATAGACAACGAGGTGCTCGTCGGAGTCACCTAGTGCAG,14600 fluorescence intensity (a.u.)
8,ACCACCACAAATTAAACCGTATTTTATTACCATCACACGCCGGAGTCACCTAGTGCAG,3240 fluorescence intensity (a.u.)
9,CATAAACAGATGCTAATTCTTGGTGGTCGGGGTGGGTCTCCGGAGTCACCTAGTGCAG,19500 fluorescence intensity (a.u.)
10,CAATCATTCAATCATCGCCGCCTTATCTTTCCCAATTCGACGGAGTCACCTAGTGCAG,13400 fluorescence intensity (a.u.)
11,TCCAATTTGTATGTTATTAATCAGAGAAGAACGAGACGGACGGAGTCACCTAGTGCAG,3800 fluorescence intensity (a.u.)
12,GGAAGTGATTGCTGTGCTGCACAGTCTAGCACCGCAGCATCGGAGTCACCTAGTGCAG,20200 fluorescence intensity (a.u.)
13,ACACCAAATGTCTAAATTTAAATTTAAAGTGAGAGTTGGTCGGAGTCACCTAGTGCAG,8050 fluorescence intensity (a.u.)
14,ATGCGGCCAATCAGATTGAGCGGCGTGCATCATGAGTGTCCGGAGTCACCTAGTGCAG,6880 fluorescence intensity (a.u.)
15,GAAAGACAGATTGCATGTTTGCACTGTGTTTGTTCCCTGACGGAGTCACCTAGTGCAG,5950 fluorescence intensity (a.u.)
16,ACTAGCTAAATTATACCATGTTAACTTATACTATATTAGTCGGAGTCACCTAGTGCAG,9700 fluorescence intensity (a.u.)
17,GGAGATTGGAGATTGTAGAAGAAGAAGCAGCTACAAACCTCGGAGTCACCTAGTGCAG,20000 fluorescence intensity (a.u.)
18,CATTTGTCAGTCAAAATTATGCCACGTCGTGTCCGTGTGACGGAGTCACCTAGTGCAG,3780 fluorescence intensity (a.u.)
19,ATCTTGTTAATTTTGGCCTCAAATAGGTCTAGAATTCATCCGGAGTCACCTAGTGCAG,4030 fluorescence intensity (a.u.)
20,AGCTTAATTTGCTAGCCATTATAGCCTCTCATCGATATATCGGAGTCACCTAGTGCAG,25200 fluorescence intensity (a.u.)
21,TGCTGCCAATTATTTTCAAAACAGGAGAGATTGTTGCCTCCGGAGTCACCTAGTGCAG,5630 fluorescence intensity (a.u.)

row,Sequence,binding signal
1,GCCATATATAGATTGCTCTTTCATTTCCCGATCGGTTGATCGGAGTCACCTAGTGCAG,6660 fluorescence intensity (a.u.)
2,CATTGATAGACAGATAGGTGAGGTTGGTGCACTGTCCCCACGGAGTCACCTAGTGCAG,51000 fluorescence intensity (a.u.)
3,TGTGATTGGGCCAAAGCCCAATACCCCAACACACGACGACCGGAGTCACCTAGTGCAG,23200 fluorescence intensity (a.u.)
4,ATTAAATCAGATTACTCTAAACTGGATTATAATAAGCTGGCGGAGTCACCTAGTGCAG,10300 fluorescence intensity (a.u.)
5,ATCTTAATTTAATTTATACTGGTTTCCAAGTTGTAATTAACGGAGTCACCTAGTGCAG,21400 fluorescence intensity (a.u.)
6,TATAATTGTGCCCTACCATATCGGCTTACTCGTCAGGCAACGGAGTCACCTAGTGCAG,12400 fluorescence intensity (a.u.)
7,TTTTGGTGTGATTATGTATATATATATCTGGGTGATTGGTCGGAGTCACCTAGTGCAG,9400 fluorescence intensity (a.u.)
8,TCTGAGCAATTAGTAAGTGAATGTCGCTACTGCATTGGCGCGGAGTCACCTAGTGCAG,4330 fluorescence intensity (a.u.)
9,TGTGGGTCTTATCTTAATATTAATTACTATCTATATACATCGGAGTCACCTAGTGCAG,3310 fluorescence intensity (a.u.)
10,ATTGGATTGGATTATTAATGAGACGGTGAGATTTCAAGTGCGGAGTCACCTAGTGCAG,19700 fluorescence intensity (a.u.)
11,CATTATTAATTTTACGACTGACGCGAAGTGCTAACGAGCTCGGAGTCACCTAGTGCAG,3200 fluorescence intensity (a.u.)
12,TTAAATTTTATGTTGCTCCATCTTCCGAGTCCTTGCTACTCGGAGTCACCTAGTGCAG,3360 fluorescence intensity (a.u.)
13,TAGTCTTGATTGATTGGCAGATGACAGCATAATAGCCGTACGGAGTCACCTAGTGCAG,65200 fluorescence intensity (a.u.)
14,ATGATCGGGGCATCAATCCATCAACATTTATTTATAGGTACGGAGTCACCTAGTGCAG,3720 fluorescence intensity (a.u.)
15,TTTGACTGCGTTCGTTTGGAGAACAAAGGGAGTTTGTTTGCGGAGTCACCTAGTGCAG,8590 fluorescence intensity (a.u.)
16,TTAATTAGGCTTAATAAATTCGTCTCGCAGTTTCCTGGCGCGGAGTCACCTAGTGCAG,11300 fluorescence intensity (a.u.)
17,GCCCTATTAATAACACATGTAATTAAGCCAACACTAATCCCGGAGTCACCTAGTGCAG,7980 fluorescence intensity (a.u.)
18,GGCTCAAACAGTTAAACTGATAAATACGGTCAATTCACGACGGAGTCACCTAGTGCAG,5110 fluorescence intensity (a.u.)
19,ATAGTTACAATATAATTGTATTTTAATTATATATAGTTTCCGGAGTCACCTAGTGCAG,10200 fluorescence intensity (a.u.)
20,TTTTGACTGACTTAAGTACACTAGTATAAAGTATGCAAAACGGAGTCACCTAGTGCAG,3300 fluorescence intensity (a.u.)
21,ATAATCAATCACACACACATCCCGACCGGGTCCGAATAGACGGAGTCACCTAGTGCAG,23200 fluorescence intensity (a.u.)

row,Sequence,binding signal
1,ATCCTAATCACAAAATGTGAACATTTATAACTCAAATATACGGAGTCACCTAGTGCAG,5830 fluorescence intensity (a.u.)
2,AACGCATGATTGACGAGTATTGTTTTACTGTAAACTTAAACGGAGTCACCTAGTGCAG,26700 fluorescence intensity (a.u.)
3,ATATTGATGTTAATGAATCTAAATAGATATATATGTCTAGCGGAGTCACCTAGTGCAG,5520 fluorescence intensity (a.u.)
4,ATTTGATTGACCCAGTTGGAGCAATGAGCCAATGACACTCCGGAGTCACCTAGTGCAG,17300 fluorescence intensity (a.u.)
5,CGCGATTAACTAATGCACGTATCAACCGCCGCTAATACGTCGGAGTCACCTAGTGCAG,5060 fluorescence intensity (a.u.)
6,TTACATTACAGCATTGATTGAACTTTCTAAAACCTAAATCCGGAGTCACCTAGTGCAG,32300 fluorescence intensity (a.u.)
7,CATAATCATGTTAGATCATGACGCTAATGATGTTGGCGCCCGGAGTCACCTAGTGCAG,6880 fluorescence intensity (a.u.)
8,TTTGATTTGGCTCGGAGAAAATTAAGGAGAATGGCAATGTCGGAGTCACCTAGTGCAG,28500 fluorescence intensity (a.u.)
9,TATATCTATTCATTGATAGAGTAAATGGAACATATTCCCTCGGAGTCACCTAGTGCAG,4880 fluorescence intensity (a.u.)
10,TAATTAATCCATAATTAGCATATGTGATGCTACAGTAAACCGGAGTCACCTAGTGCAG,11700 fluorescence intensity (a.u.)
11,AATTTCTGTCTGATTGTCATGGTGACTGTCAAATGCAACCCGGAGTCACCTAGTGCAG,16400 fluorescence intensity (a.u.)
12,CCTAATTTTAGCAGCAGCAAAGCTCGGATTCCCCTCCCATCGGAGTCACCTAGTGCAG,12100 fluorescence intensity (a.u.)
13,AACTCAATCAGAAACGACACCCACAAGACTAATACACAATCGGAGTCACCTAGTGCAG,4540 fluorescence intensity (a.u.)
14,TCTGATAACAAATTAAACCTGCAGGATCAATGAATTAACCCGGAGTCACCTAGTGCAG,6950 fluorescence intensity (a.u.)
15,TAAAACCGTGTGATTATCAGGTTATCACATGCAGTAATCTCGGAGTCACCTAGTGCAG,6880 fluorescence intensity (a.u.)
16,GCCAGACTGCTATTTATACATTCATACTATATCACGTGAACGGAGTCACCTAGTGCAG,3360 fluorescence intensity (a.u.)
17,TCTCAGACCATGATAGACAGCATCAGGGAGCTGAACTGGCCGGAGTCACCTAGTGCAG,5350 fluorescence intensity (a.u.)
18,TGTAACAGAATTTAGAGGAGAACATGGCCGAATAATTTTGCGGAGTCACCTAGTGCAG,5120 fluorescence intensity (a.u.)
19,TAGGGAGCAAATTAACATCGATCACTATATTCATTGATGGCGGAGTCACCTAGTGCAG,3470 fluorescence intensity (a.u.)
20,CATCACCTCAATCAACATCAACCATCCCACCCTCTCAACCCGGAGTCACCTAGTGCAG,6510 fluorescence intensity (a.u.)
21,TTAAATTTCGAGTTGAAAATTTTCAAATTGAGTTTTGAAACGGAGTCACCTAGTGCAG,3500 fluorescence intensity (a.u.)

row,Sequence,binding signal
1,CCAGATATATAATTAACCACCCCGTCTCTTTCACGACCCACGGAGTCACCTAGTGCAG,9400 fluorescence intensity (a.u.)
2,GATTTATTTAATTATGACCATTCGCTAATCCGGCCAAGACCGGAGTCACCTAGTGCAG,7990 fluorescence intensity (a.u.)
3,GTGATTGATATCAATGTAGTACTAGCATGCAAAGCACGAACGGAGTCACCTAGTGCAG,41300 fluorescence intensity (a.u.)
4,CACAAATTATAGTACATCGGGCATGCATCCTTCTTGGGTGCGGAGTCACCTAGTGCAG,11200 fluorescence intensity (a.u.)
5,TTTGGTAATCTAAAAGTTTATTTTAAAATTTCTTTGTCAACGGAGTCACCTAGTGCAG,3470 fluorescence intensity (a.u.)
6,TTAAGCCTAATTAATCCGTCATTAGCAAATGTTTACTGTACGGAGTCACCTAGTGCAG,8840 fluorescence intensity (a.u.)
7,TCGATTATACCAATTTACCATGACTTGTTACTACCAGTAGCGGAGTCACCTAGTGCAG,4070 fluorescence intensity (a.u.)
8,GTGTAAAATGGAACTAATCATTAACGTATGATTAATTATGCGGAGTCACCTAGTGCAG,24100 fluorescence intensity (a.u.)
9,GGATTAATAGAGAGTCTGTTAGAGTAAGCATCTAGTTTGACGGAGTCACCTAGTGCAG,3220 fluorescence intensity (a.u.)
10,ATTTGATGCAAATTGGCTATAAGCAAAGTTCAGAAAACGGCGGAGTCACCTAGTGCAG,12000 fluorescence intensity (a.u.)
11,GGGCCGGGAGGGTGCCTGATTGATTCGATTCAGGATTGGCCGGAGTCACCTAGTGCAG,17400 fluorescence intensity (a.u.)
12,CTGCCGAAATTGCATGTATTAATCATCACCTCTACTAGCTCGGAGTCACCTAGTGCAG,6950 ± 271 fluorescence intensity (a.u.)
13,CCCATTGACAATATTTGTTTCGGTCCCGTACTTATAGGCCCGGAGTCACCTAGTGCAG,4840 fluorescence intensity (a.u.)
14,TTACTAATTTGGCTTTTCCTGGTTAAATAATATCTGACGTCGGAGTCACCTAGTGCAG,15000 fluorescence intensity (a.u.)
15,ATTTTGATTTGTGGGCTGATGGTAGATAAGAAACTCCAAACGGAGTCACCTAGTGCAG,27000 fluorescence intensity (a.u.)
16,CCAGAATTGTTTACTTCAATTTACCCAAATTTAGGCCCATCGGAGTCACCTAGTGCAG,7240 fluorescence intensity (a.u.)
17,TCAGTAAACAAAATAAATAAATAAATGGCAACCCAAGTTGCGGAGTCACCTAGTGCAG,3630 fluorescence intensity (a.u.)
18,ACAGATTGAAGGAGTTATCAATATAATGTTTTCAATAATGCGGAGTCACCTAGTGCAG,24300 fluorescence intensity (a.u.)
19,ATGTGATGGAAAAGATGGAAGTTTATGTATATAGGAAAATCGGAGTCACCTAGTGCAG,4940 fluorescence intensity (a.u.)
20,ATGGTTTAATTAGGCTCAAAAGATCCATCTCGTGATTTCCCGGAGTCACCTAGTGCAG,4660 fluorescence intensity (a.u.)
21,AACTGATAATCTGACAGCCATTGATCGATCAACTATAAATCGGAGTCACCTAGTGCAG,4290 fluorescence intensity (a.u.)
